{"source": "PubChem BioAssay AID445", "about": "(National Center for Advancing Translational Sciences (NCATS), 2006)", "note": "Among all 110,000 compounds or so, about 40 (0.04%) were called active. Inconclusive means that the source gave no clear call. Such entries were picked first, then a sample of the others. Calls follow the shape of the dose curve; as a rule, active = well fitted curve in the direction sought with a large enough effect in the signal ratio (not every such curve was filed as active); inconclusive = small, poorly fitted or top-dose-only effect, or a change in a side signal; inactive = flat fitted curve, though single readings scatter; the % refers to the signal ratio. Where the call is inconclusive, the potency comes from a doubtful curve fit. Potency is read from the fitted curve at half-maximal effect."}
{"assay": "IkB Signaling;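 as to IkBa stabilization activation: 0% = basal untreated cells and 100% = reference inhibitor full response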", "conditions": "ABC-DLBCL IkBa-CBG/CBR dual luciferase ratio (green luciferase fused to IkBa over red control in OCI-Ly3 lymphoma cells), 4 h; IkBa stabilization activation: at 57.1 µM (top of the series), scaled: untreated 0%, proteasome inhibitor 100% unless noted", "outline": "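In this assay, an IκBα–CBG68 fusion accumulates when IKK-driven degradation is blocked; native CBR normalizes for cell number. OCI-Ly3 cells were treated 4 h with compound and doxycycline, then green and red light read after Chroma-Glo addition.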"}
{"smiles": "CC1=C(/C=C/C(C)=C/C=C/C(C)=C\\C=O)C(C)(C)CCC1", "Potency": "inconclusive: 25.1 µM [rising, partial curve]"}
{"smiles": "CC(=O)N1CCc2cc(Br)cc(S(=O)(=O)N3CCC(C(=O)Nc4cccc(C)c4C)CC3)c21", "IkBa stabilization activation": "inactive"}
{"smiles": "CCCCn1c(CNC(=O)C23CC4CC(CC(C4)C2)C3)nnc1SCC(=O)Nc1ccc(C)cc1", "IkBa stabilization activation": "inconclusive: 3.32% [signal inhibitor]"}
{"smiles": "CCOCCCN(Cc1ccco1)S(=O)(=O)c1cc2c(cc1C)NC(=O)CO2", "IkBa stabilization activation": "inconclusive: -0.864% [signal inhibitor]"}
{"smiles": "COc1ccc(-n2ncc(C(=O)Nc3cccc(C(F)(F)F)c3)c2C2CCN(C(=O)OC(C)(C)C)CC2)cc1", "IkBa stabilization activation": "inconclusive: 1.2% [signal inhibitor]"}
{"smiles": "Cc1ccc(C2=Nc3ccccc3N(CC(=O)NCc3ccccc3Cl)C(=O)C2)cc1C", "IkBa stabilization activation": "inconclusive: -1.4% [signal inhibitor]"}
{"smiles": "O=C(Nc1c(C(=O)N2CCN(c3ccccc3)CC2)oc2ccccc12)c1ccco1", "IkBa stabilization activation": "inconclusive: 1.04% [signal inhibitor]"}
{"smiles": "Cc1c(C(=O)NCCc2ccc(Cl)cc2)sc2nc3n(c(=O)c12)CCCC3", "IkBa stabilization activation": "inactive"}
{"smiles": "CCn1c(C(=O)N2CCCC(C(=O)N3CCN(c4cc(C)ccc4C)CC3)C2)cc2sccc21", "note": "(centres undefined)", "IkBa stabilization activation": "inconclusive: 4.66% [signal inhibitor]"}
{"smiles": "Cc1ccc(CCNC(=O)CCS(=O)(=O)c2cc3c(cc2C)NC(=O)CO3)cc1", "IkBa stabilization activation": "inconclusive: -3.65% [signal inhibitor]"}
{"smiles": "CCCCC(=O)Nc1ccc2c(c1)nc1n2CCSC1", "IkBa stabilization activation": "inactive"}
{"smiles": "COc1ccc(NC(=O)c2cc3c(=O)n(Cc4cccnc4)ccc3nc2C)cc1OC", "IkBa stabilization activation": "inactive"}
{"smiles": "COc1cc2c(cc1OC)C(COc1cc(C)cc(C)c1)N(C(=O)COc1ccccc1)CC2", "note": "(centres undefined)", "IkBa stabilization activation": "inconclusive: 2.09% [signal inhibitor]"}
{"smiles": "Cc1ccc(NC(=O)C(=O)c2cc(C)n(-c3ccc(F)cc3)c2C)cc1C", "Potency": "inconclusive: 25.1 µM [signal inhibitor, single point]"}
{"smiles": "COc1cccc(-n2ccn(CC(=O)c3ccc(F)cc3)c(=O)c2=O)c1", "IkBa stabilization activation": "inconclusive: 2.44% [signal inhibitor]"}
{"smiles": "COc1ccccc1N1CCN(C(=O)CSc2nc3ccccc3nc2Cc2ccccc2)CC1", "IkBa stabilization activation": "inconclusive: 1.59% [signal inhibitor]"}
{"smiles": "O=C(O)C=Cc1ccc(Cn2ccnc2)cc1", "IkBa stabilization activation": "inactive"}
{"smiles": "Cc1ccc(CSC2=Nc3ccccc3C3=NC(CC(=O)NC4CCCCC4)C(=O)N23)cc1", "note": "(centres undefined)", "IkBa stabilization activation": "inconclusive: -4.5% [signal inhibitor]"}
{"smiles": "COc1ccc(CNC(=O)c2cc(Nc3ccc(C)cc3C)nc3ccccc23)cc1", "IkBa stabilization activation": "inconclusive: -1.78% [signal inhibitor]"}
